Sequences with one replicate were seen in a single cluster, so their values are uncertain.
System: ATP
Assay: switch fluorescence ratio, 500 uM ATP over buffer (Cy3 cluster intensity, sum of 5 cycles each) (fold (ratio)); higher = stronger signal-on switching upon ATP binding; sequences stand for … in TCGTCGGCAGCGTCAGATGTGTATAAGAGACAGTTTTTTTTTTTTTTTTTTTTTTTTT…TC
Details: aptamer strand: ATP DNA aptamer (quencher-CACCTGGGGGAGTATTGCGGAGGAAGG + anchor), 100 nM annealed; ATP concentration: 500 uM; one replicate
How it was run: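 Switching-strand clusters labelled with Cy3 on a modified Illumina MiSeq flow-cell were annealed to 100 nM quencher-labelled ATP aptamer, imaged in selection buffer, and re-imaged after 15 min with 500 uM ATP at 22 °C. This was done over five cycles with NaOH stripping and re-annealing in between. The fluorescence ratio is summed target-cycle over summed buffer-cycle Cy3 intensity per cluster, averaged per switch-domain sequence, excluding clusters outside 100-1000 RFU.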
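Further: ATP exposure 15 min at 22 °C before imaging.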

Row | Sequence | switch fluorescence ratio
1 | CAAAAATTAC | 1.9
2 | ACGCGGGGTC | 1.01
3 | ACCTTCGTCG | 2.12
4 | TTCACTAGCT | 1.01
5 | GAGCATATGG | 0.923
6 | TAGATGCAAG | 0.946
7 | GAGATCAACT | 0.957
8 | TTGAGGT | 0.982
9 | AAGATACGGG | 1
10 | CTGCTTGCAA | 1.04
11 | CGCATAGATT | 1.03
12 | CCTCGCGGCA | 2.33
13 | GCTCGGGCGA | 1.01
14 | GGCTAACCGT | 0.978
15 | ACCTCGGTTT | 0.999
16 | GGGGCCCTTC | 0.992
17 | ACAGTGGCAC | 0.933
18 | ATAATTATTG | 1
19 | GGCCTTAGTG | 0.968
20 | ATTAATTTAG | 0.977
21 | ATTATACTAT | 1
22 | TATACTGGAC | 1.24
23 | GGGTAGGGA | 0.962
24 | CTTATAGTTC | 1.03
25 | AACAGAACGT | 0.765
26 | ATATGTCGGG | 0.977

Row | Sequence | switch fluorescence ratio
27 | ATATTTCTCT | 0.968
28 | TACATCAG | 0.995
29 | TACCTAAAG | 1.04
30 | ATGCTATGGG | 0.986
31 | GGGGTGCTGG | 0.982
32 | GAGTATGGGG | 0.953
33 | CATCTGCGCG | 1.04
34 | GTTAATCAAA | 1
35 | GGTGTCGCTT | 0.973
36 | AGGATCTCCG | 0.992
37 | ATAAGGTGTT | 1.13
38 | ATGGCAATCC | 2.07
39 | ACAGTAGTCT | 1.02
40 | ATATCATCTG | 1.02
41 | AACTATATGA | 1.03
42 | GATTTGAATA | 1.01
43 | CCTCTCCGTG | 1.77
44 | TCAGCGGGGT | 1.15
45 | GCGGGATGTA | 0.937
46 | CAGTTAAGAA | 0.99
47 | ACCACACACC | 1.5
48 | TGATTCCAAC | 0.971
49 | GGGATCGCAA | 1.25
50 | TTCCCTGAGG | 1.05
51 | ACGCTATGGA | 1.03
52 | GATTTACCGT | 1.02

Row | Sequence | switch fluorescence ratio
53 | ACGTTTCGAA | 0.978
54 | TCGAGTGGTC | 1.02
55 | AAGACCGGGT | 1.05
56 | GCCGGGAGCG | 1
57 | CCGGTCCGTG | 1.06
58 | AGATGATTGA | 1.01
59 | TTTGGATAAG | 0.965
60 | CAAGAAGCGG | 1.06
61 | CTATGATCAT | 0.974
62 | CACTTAGGC | 1.1
63 | TTCGTTGGAA | 1.61
64 | AAGTTAGAT | 0.995
65 | TTAGAAATTC | 1.18
66 | CCTTGGTGTT | 1.28
67 | CGGCTACTGT | 1.04
68 | CGTATGATGA | 1.01
69 | CATGATTCAT | 1.04
70 | ACCTTTATAA | 1.05
71 | GGCTCCATTT | 0.993
72 | GACGTGGGTA | 1.01
73 | AACGGAAAC | 1.18
74 | GAGGATACGT | 1.03
75 | TGCTAGGCTG | 1.01
76 | GCCGCGGCTG | 0.981
77 | ATCAACATGC | 1.06
78 | CGTAGGCAC | 1.08

Row | Sequence | switch fluorescence ratio
79 | TGACCCATCA | 1.06
80 | TAACTCACG | 1.43
81 | AGGAGGGAGG | 1.01
82 | AATGTATCGA | 0.988
83 | CTGTGACAGC | 1.06
84 | GACCTACAGC | 1.13
85 | CGAATACTTA | 1.07
86 | GTTGTCAACG | 0.986
87 | GAATGGAGAC | 1.04
88 | GCATAATCCA | 1.09
89 | TTCGCCTGC | 1.01
90 | CAAAGGGGA | 1.15
91 | ACAACTATGG | 1.03
92 | AGATCCAGAG | 0.999
93 | TAAATTGGAA | 0.976
94 | AAGATTCCTA | 1
95 | ATCTTACGG | 1.01
96 | TATAAGGAGA | 0.929
97 | TTTCCTCCAT | 3.6
98 | GCAACGCCTG | 0.969
99 | AAGTGACGAA | 0.996
100 | CCATCGGTAG | 0.975
101 | ACGACGGTGC | 3.05
102 | TGCATAAGTA | 1.01
103 | AATAAGCGAT | 1.03
104 | AAAGCGCTGA | 1.03

Row | Sequence | switch fluorescence ratio
105 | GACCTGCTAT | 1.09
106 | TTATGAACT | 0.968
107 | ATTATTTTTC | 1
108 | GACGCTTGGC | 1.36
109 | TTCGTAGCTT | 1.18
110 | ATTAAAGT | 1
111 | AAGTTACTCT | 1.08
112 | TTCCGGTAAA | 1.01
113 | TTAGTAGGGA | 0.975
114 | AAGGAGTCCT | 1.02
115 | TTTGCTAGCC | 0.982
116 | CGTCCATTTA | 0.961
117 | ATGATGGGTT | 0.988
118 | TCGTACAGGC | 1.03
119 | TTAAAGACG | 1.01
120 | TAAGACGATA | 0.988
121 | CGGAGGGGT | 1.11
122 | TCGAGAGATG | 0.973
123 | TTGTGGTAGA | 1.03
124 | GTACGTTGTC | 1.03
125 | CCTGACCAGG | 1.53
126 | ATGCGCCTAA | 0.984
127 | CGCTTCAAGC | 1.01
128 | CATTGGCTGC | 1.01
129 | TATTGGAGCT | 0.984
130 | CCGTGAGGCG | 0.959

Row | Sequence | switch fluorescence ratio
131 | GGTGGTGTGT | 1.02
132 | AATAGCCAGC | 1.01
133 | CCCATGAGGG | 0.989
134 | TATAGAGTGT | 1.01
135 | TGGTCACTTT | 0.996
136 | GCTGCAATCT | 1.57
137 | AGCAAATCCA | 1.06
138 | CACTTGGGTA | 0.986
139 | AGTTGGATAC | 1.03
140 | CGCTACTCTT | 3.08
141 | TAGACAAGCT | 1.02
142 | GAGGGGATCT | 0.962
143 | TGCATTATT | 1.27
144 | CGTCTTAATG | 0.987
145 | CGGAACATTA | 1
146 | GGATTATGGT | 0.978
147 | ACGAACGTTA | 1.3
148 | GATGAGGACC | 0.984
149 | CACTGGGTGA | 1.03
150 | CAGTTCAGAT | 0.98
151 | ATGTGGTTTA | 1.04
152 | GCTCAATCT | 0.964
153 | ATCTTTACTT | 0.961
154 | GACATGGATG | 1.01
155 | ATTTGAGAAG | 1.01
156 | TTGGACTGAG | 1.02

Row | Sequence | switch fluorescence ratio
157 | TGACCAAAAT | 1.08
158 | CGTTCGCTGA | 1.41
159 | GCGGATGGTT | 1
160 | TTCAGTATCC | 1.02
161 | TGCCCCGATC | 1.09
162 | ACTTGAATCG | 0.965
163 | CGTTAGGTTT | 0.997
164 | GCCGGTTTAT | 0.967
165 | TTGAAGTCAG | 0.978
166 | CGCCTGATTG | 0.958
167 | TATGGTGGAA | 1.01
168 | AACATTTGGT | 0.973
169 | CATATCGTCC | 1.02
170 | GGGTGAAGTA | 0.96
171 | GCAGTTTTCC | 1.05
172 | CGGATCCACC | 1.04
173 | ACGGTATCTG | 0.994
174 | ACACGGGAAT | 1.07
175 | GGACGATTGT | 0.94
176 | ACGCCCGCAG | 1.47
177 | CGTCCGACGG | 1.24
178 | TGTCCCCGT | 0.999
179 | GATGAGAAA | 1.07
180 | TATTTACCAG | 1.01
181 | AGACACGGGT | 1.02
182 | ATGAATACCA | 1.01

Row | Sequence | switch fluorescence ratio
183 | GTATTTCATG | 0.974
184 | CCAGATATGC | 1.15
185 | AGTCGGTCAT | 1.04
186 | AACCGGTAT | 0.992
187 | TTCATTACAG | 0.984
188 | CTATTTTCGG | 0.977
189 | GTCGGTAACG | 1.05
190 | GAATCATTAC | 1.25
191 | TTTACCATTA | 1
192 | GGATTGGGCT | 1.13
193 | GAATAATCAA | 0.988
194 | AGGTGGTTCG | 0.994
195 | AAGTCGAAGA | 1.01
196 | ATATGTGCGG | 1.06
197 | TGACACTTAC | 1.45
198 | AGACGGTCAC | 1.31
199 | GCTTATCTG | 0.973
200 | ATGGGGTAG | 1.01
201 | TAGCTTGTCC | 0.971

Reference: the supplement of paper PMC10126150
